# Assay results taken from PubChem BioAssay (NCATS).
# Several values for one entry are separate records, joined by “and”; a condition that tells them apart may be missing. Identical values can stand only once. The inconclusive results got no clear call from the source; some entries with a clear call stand among them for comparison. A potency beside an inconclusive call is a rough fit, not a confirmed value. Where a structure was tested more than once in an assay, its records may differ in their call. Activity calls are given as the source filed them. Unless noted, calls follow the shape of the dose curve; as a rule, active = well fitted curve in the direction sought with a large enough effect; inconclusive = small, poorly fitted or top-dose-only effect, or another doubt; inactive = no such curve, though single readings can be large; an effect the other way counts as inactive or inconclusive.
# Legend:
# [1] = biological target: Cytochrome P450 2C9 (Homo sapiens) (UniProt P11712); assay: Cytochrome P450 family 2 subfamily C member 9 (CYP2C9) small molecule antagonists: luciferase biochemical (cell-free) qHTS assay (AID 1645842; active = well fitted curve in the direction sought with a large enough effect in the repeat runs; inconclusive = weak or mixed curves; inactive = no such curve, though single readings can be large; an effect the other way counts as inactive or inconclusive; also: nearly all actives have a fitted effect of over 55% in size); conditions: P450-Glo CYP2C9 enzyme assay, luciferin luminescence; series mostly up to 57.4 µM
# Procedure, shortened: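 P450-Glo CYP2C9 system: proluciferin substrate with enzyme in mix containing 0.4% BSA, 10 min at room temperature, then NADPH regeneration solution added and incubated 1 h at 37C. Detection reagent stopped reaction; luminescence read after 20 min as RLU.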
# [2] = qHTS of pediatric cancer cell lines to identify multiple opportunities for drug repurposing: Primary screen for Saos-2 cells (AID 1347097); conditions: Saos-2 viability, CellTiter-Glo ATP luminescence, 48 h; series mostly up to 46 µM; also: nearly all actives have a fitted effect of over 40% in size
# Procedure, shortened: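 Luminescence from CellTiter-Glo served as readout of metabolically active cells after 48 h compound exposure. Titrations: MIPE 11-point, from 0.78 nM; NPC 8-point, from 0.59 nM (final). Concentration-response curves came straight from the primary screen.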
# [3] = qHTS to identify inhibitors of the type 1 interferon - major histocompatibility complex class I in skeletal muscle: primary screen against the NCATS Mechanism Interrogation Plate v5.0 (MIPE) Libary (AID 1347411); conditions: iHSKM cells + IFN-b, HiBiT-tagged MHC-I luminescence, 24 h; series mostly up to 45.8 µM; also: nearly all actives have a fitted effect of over 65% in size
# Procedure, shortened: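 Luminescence from CRISPR HiBit-tagged endogenous HLA-B in human myoblasts reported MHC class I level after 24 h of IFN-beta (4 ng/ml) plus compound. Compounds ran as 11-point 1:3 series, top 46 uM final.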
# [4] = Quantitative High-Throughput drug screen in 47 multiple myeloma cell lines against the NCATS MIPE library collection: FR4_PLB cell viability assay (AID 1918924; also: nearly all actives have a fitted effect of over 35% in size); conditions: FR4_PLB myeloma cells viability, CellTiter-Glo ATP, 48 h; series mostly up to 45.8 µM
# Procedure, shortened: (§1)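 We plated 500 myeloma cells per well, pinned in MIPE 4.0 compounds, and incubated for 48 hours at 37C. ATP was then quantified with CellTiter-Glo, with DMSO and media-only wells defining 100% and 0%.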
# [5] = Quantitative High-Throughput drug screen in 47 multiple myeloma cell lines against the NCATS MIPE library collection: Karpas417_ECACC cell viability assay (AID 1918961); conditions: Karpas417 myeloma viability, CellTiter-Glo ATP luminescence, 48 h; series mostly up to 45.8 µM
# Procedure, shortened: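 Viability readout: CellTiter-Glo luminescence following 5 min room-temperature incubation with reagent. Prior exposure: 48 h, 37C, humidified 5% CO2, 500 cells per well.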
# [6] = Quantitative High-Throughput drug screen in 47 multiple myeloma cell lines against the NCATS MIPE library collection: KHM11_PLB cell viability assay (AID 1918962); conditions: KHM11 myeloma cell viability, CellTiter-Glo ATP luminescence, 48 h; series mostly up to 45.8 µM; also: nearly all actives have a fitted effect of over 35% in size
# Procedure, shortened: as §1
# [7] = Quantitative High-Throughput drug screen in 47 multiple myeloma cell lines against the NCATS MIPE library collection: JIM1_ECACC cell viability assay (AID 1918964); conditions: JIM1 myeloma viability, CellTiter-Glo ATP luminescence, 48 h; series mostly up to 45.8 µM
# Procedure, shortened: (§2)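 Myeloma cells (500 per well) were exposed to MIPE 4.0 compounds by pin transfer and incubated 48 hours at 37C, 5% CO2. Viability was read as ATP by CellTiter-Glo luminescence, normalised to DMSO (100%) and media-only (0%) wells.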
# [8] = Quantitative High-Throughput drug screen in 47 multiple myeloma cell lines against the NCATS MIPE library collection: MOLP8_DSMZ cell viability assay (AID 1918977); conditions: MOLP8 myeloma viability, CellTiter-Glo ATP luminescence, 48 h; series mostly up to 45.8 µM; also: nearly all actives have a fitted effect of over 45% in size
# Procedure, shortened: (§3)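 Cells were exposed to library compounds for 48 hours, after which ATP was measured by CellTiter-Glo. Signal was taken as median relative luminescence units.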
# [9] = Quantitative High-Throughput drug screen in 47 multiple myeloma cell lines against the NCATS MIPE library collection: L363_DSMZ cell viability assay (AID 1918984); conditions: L363 myeloma viability, CellTiter-Glo ATP luminescence, 48 h; series mostly up to 45.8 µM; also: nearly all actives have a fitted effect of over 40% in size
# Procedure, shortened: as §3
# [10] = Quantitative High-Throughput drug screen in 47 multiple myeloma cell lines against the NCATS MIPE library collection: UTMC2_PLB cell viability assay (AID 1919868); conditions: CellTiter-Glo ATP luminescence, 48 h; series mostly up to 45.8 µM; also: nearly all actives have a fitted effect of over 55% in size
# Procedure, shortened: as §3
# MKL-2 = assay: qHTS assay to identify novel small-molecules to repurpose for Merkel cell carcinoma treatment (AID 1296009); conditions: MCC and control cell lines, CellTiter-Glo viability, 72 h; activity change, negative = cytotoxicity: at 46 µM (top of the series); also: nearly all actives have a fitted effect of over 60% in size
# Procedure, shortened: (§4)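 Dose-response viability screen; 72 hr exposure at 37 degree celsius; CellTiter-Glo added, 10 min room temperature, luminescence read; RLUs scaled between no-cell and DMSO wells.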
# [11] = qHTS of pediatric cancer cell lines to identify multiple opportunities for drug repurposing: Primary screen for SJ-GBM2 cells (AID 1347091); conditions: SJ-GBM2 viability, CellTiter-Glo luminescence, 48 h; series mostly up to 46 µM
# Procedure, shortened: (§5)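 Viability measured as metabolically active cells via CellTiter-Glo luminescence following 48 hours of compound exposure, 11-point dilutions in confirmatory testing. 500-1,000 cells/well plated 5 hours before dosing; controls were DMSO and 2.3 µM bortezomib.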
# [12] = qHTS of pediatric cancer cell lines to identify multiple opportunities for drug repurposing: Primary screen for U-2 OS cells (AID 1347096); conditions: U-2 OS viability, CellTiter-Glo luminescence, 48 h; series mostly up to 46 µM; also: nearly all actives have a fitted effect of over 50% in size
# Procedure, shortened: (§6)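 Viability after 48 h compound treatment at 37C, 500-1,000 cells/well, read as ATP luminescence with CellTiter-Glo. Primary screens used 11-point (MIPE, 0.78 nM-46 µM) or 8-point (NPC, 0.59 nM-46 µM) final concentrations; follow-up screens used 11-point dilutions.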
# [13] = qHTS of pediatric cancer cell lines to identify multiple opportunities for drug repurposing: Primary screen for LAN-5 cells (AID 1347100); conditions: LAN-5 neuroblastoma viability, CellTiter-Glo luminescence, 48 h; series mostly up to 46 µM
# Procedure, shortened: as §6
# [14] = qHTS of pediatric cancer cell lines to identify multiple opportunities for drug repurposing: Confirmatory screen for SJ-GBM2 cells (AID 1347116); conditions: SJ-GBM2 glioblastoma cells, viability; series mostly up to 45.9 µM; also: nearly all actives have a fitted effect of over 60% in size
# Procedure, shortened: as §5
# [15] = Quantitative High-Throughput drug screen in 47 multiple myeloma cell lines against the NCATS MIPE library collection: OPM2_DSMZ cell viability assay (AID 1919872); conditions: OPM2 myeloma viability, CellTiter-Glo ATP luminescence, 48 h; series mostly up to 45.8 µM; also: nearly all actives have a fitted effect of over 30% in size
# Procedure, shortened: as §2
# MKL-1 = assay: qHTS assay to identify novel small-molecules to repurpose for Merkel cell carcinoma treatment (AID 1296009); conditions: MCC and control cell lines, CellTiter-Glo viability, 72 h; activity change, negative = cytotoxicity: at 46 µM (top of the series); also: nearly all actives have a fitted effect of over 60% in size
# Procedure, shortened: as §4
# [16] = biological target: Phospholipid hydroperoxide glutathione peroxidase GPX4 (Homo sapiens) (UniProt P36969); assay: Primary qHTS Assay for Inhibitors of Recombinant Selenoprotein Glutathione Peroxidase 4 (GPX4) (AID 1845192); conditions: recombinant GPX4, GR-coupled NADPH fluorescence, 15 min; series mostly up to 50 µM; also: nearly all actives have a fitted effect of over 65% in size
# Procedure, shortened: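 Steps: GPX4 plus compound, 30 min RT; add GR/GSH/NADPH master mix; start with cumene hydroperoxide; read 340/450 nm fluorescence at 0 and 15 min. Finals were 200 nM GPX4, 1 mM GSH, 0.5 mM CHP, 0.5 mM NADPH, 100 nM GR.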
# [17] = Quantitative High-Throughput drug screen in 47 multiple myeloma cell lines against the NCATS MIPE library collection: KMS21BM_JCRB cell viability assay (AID 1918974); conditions: ATP luminescence, 48 h; viability: at 45.8 µM (top of the series)
# Procedure, shortened: as §2
# UISO = assay: qHTS assay to identify novel small-molecules to repurpose for Merkel cell carcinoma treatment (AID 1296009); conditions: MCC and control cell lines, CellTiter-Glo viability, 72 h; activity change, negative = cytotoxicity: at 46 µM (top of the series); also: nearly all actives have a fitted effect of over 60% in size
# Procedure, shortened: as §4
# Potency is read from the fitted curve at half-maximal effect; tags tell the direction and shape of the fitted curve.
# Sequence of UniProt P11712 (P11712 whole entry, looked up): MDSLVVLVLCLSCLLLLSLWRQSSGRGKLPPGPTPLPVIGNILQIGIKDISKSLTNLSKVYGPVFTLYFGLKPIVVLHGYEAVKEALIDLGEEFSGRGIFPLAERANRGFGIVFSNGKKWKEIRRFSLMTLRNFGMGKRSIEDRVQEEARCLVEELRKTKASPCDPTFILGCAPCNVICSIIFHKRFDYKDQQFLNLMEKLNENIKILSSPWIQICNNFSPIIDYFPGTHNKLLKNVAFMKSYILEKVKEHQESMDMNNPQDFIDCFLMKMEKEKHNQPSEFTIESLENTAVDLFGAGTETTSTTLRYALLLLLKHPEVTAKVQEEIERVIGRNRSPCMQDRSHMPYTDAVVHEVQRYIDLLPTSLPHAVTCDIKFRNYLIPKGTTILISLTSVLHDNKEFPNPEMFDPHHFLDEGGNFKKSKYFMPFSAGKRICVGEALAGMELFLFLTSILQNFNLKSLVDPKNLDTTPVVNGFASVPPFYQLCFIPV
# Sequence of UniProt P36969 (P36969 whole entry, looked up): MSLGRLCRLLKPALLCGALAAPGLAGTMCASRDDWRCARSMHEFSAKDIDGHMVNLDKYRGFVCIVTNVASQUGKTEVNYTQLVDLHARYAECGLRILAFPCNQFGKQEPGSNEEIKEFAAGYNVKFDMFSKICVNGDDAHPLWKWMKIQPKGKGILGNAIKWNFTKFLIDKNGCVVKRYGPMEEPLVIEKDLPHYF
structure (smiles),measurement,setting,value
CC(C)(C)NC(=O)[C@@H](c1cccnc1)N(C(=O)c1ccco1)c1ccc(C(C)(C)C)cc1,Potency,[1],active: 5.35 µM
O=S(=O)(c1cccc2cnccc12)N1CCCNCC1,Potency,[2],"inconclusive: 20.9 µM [cytotoxic, partial curve] and inconclusive: 23.7 µM [cytotoxic, single point]"
same,Potency,[3],inactive
same,Potency,[4],"inconclusive: 1.87 µM [rising, full curve]"
same,Potency,[5],"inconclusive: 23.5 µM [cytotoxic, partial curve]"
same,Potency,[6],"inconclusive: 37.2 µM [cytotoxic, single point]"
same,Potency,[7],"inconclusive: 20.9 µM [cytotoxic, partial curve, poor fit]"
same,Potency,[8],"inconclusive: 33.2 µM [cytotoxic, single point]"
same,Potency,[9],"inconclusive: 4.69 µM [cytotoxic, full curve, poor fit]"
same,Potency,[10],"inconclusive: 37.2 µM [cytotoxic, single point]"
same,Potency,MKL-2,inactive
COc1ccc(C[C@@H](C)[C@@H](C)Cc2ccc(OC)c(OC)c2)cc1OC,Potency,[11],active: 0.418 µM
same,Potency,[12],"inconclusive: 0.935 µM [cytotoxic, full curve]"
same,Potency,[13],active: 0.187 µM
same,Potency,[14],inactive
same,Potency,[4],active: 0.118 µM
same,Potency,[7],"inconclusive: 0.105 µM [cytotoxic, full curve]"
same,Potency,[9],active: 0.166 µM
same,Potency,[15],active: 0.469 µM
same,Potency,MKL-1,"inconclusive: 5.26 µM [inhibitor, partial curve]"
C/C=C1\[C@H](O[C@@H]2O[C@H](CO)[C@@H](O)[C@H](O)[C@H]2O)OC=C(C(=O)O)[C@H]1CC(=O)OCCc1ccc(O)cc1,Potency,[16],inactive
O=C(Nc1cccc(Nc2ncc(Br)c(NCCc3cnc[nH]3)n2)c1)N1CCCC1,Potency,[11],active: 5.9 µM
same,Potency,[4],"inconclusive: 37.2 µM [cytotoxic, single point]"
same,Potency,[7],"inconclusive: 0.0033 µM [cytotoxic, full curve, poor fit]"
same,Potency,[17],"inconclusive: 5.9 µM [cytotoxic, full curve, poor fit]"
same,Potency,[8],active: 6.62 µM
same,Potency,[9],inactive
same,Potency,[10],active: 0.662 µM
same,Potency,[15],active: 4.18 µM
same,Potency,MKL-2,active: 5.9 µM
CN(C)CC1CCOC1(c1ccccc1)c1ccccc1 (stereo not given),Potency,[1],"inconclusive: 6.32 µM [inhibitor, single point]"
CCOC(=O)NNc1nncc2ccccc12,Potency,[12],inactive
COC(=O)[C@H]1[C@H]2C[C@@H]3c4[nH]c5cc(OC)ccc5c4CCN3C[C@H]2C[C@@H](OC(=O)COc2ccc(OC)cc2)[C@@H]1OC,Potency,[2],inactive
CCC(C(=O)OCCOCCN(CC)CC)c1ccccc1 (stereo not given),Potency,[2],"inconclusive: 7.5 µM [cytotoxic, partial curve, poor fit]"
OCCNC1CCCc2c1[nH]c1ccc(-c3ccccc3)cc21 (stereo not given),Potency,[12],"inconclusive: 29.6 µM [cytotoxic, single point]"
same,Potency,[4],active: 18.7 µM
same,Potency,[5],active: 10.5 µM
same,Potency,[6],active: 9.35 µM
same,Potency,[7],"inconclusive: 16.6 µM [cytotoxic, partial curve, poor fit]"
same,Potency,[17],"inconclusive: 20.9 µM [cytotoxic, partial curve, poor fit]"
same,Potency,[8],"inconclusive: 33.2 µM [cytotoxic, single point]"
same,Potency,[10],"inconclusive: 11.8 µM [cytotoxic, partial curve, poor fit]"
same,Potency,[15],"inconclusive: 26.4 µM [cytotoxic, single point]"
same,Potency,MKL-2,active: 26.4 µM
same,Potency,UISO,"inconclusive: 37.2 µM [inhibitor, single point]"
NC(=O)Nc1sc(-c2ccc(F)cc2)cc1C(N)=O,Potency,[11],active: 0.372 µM
same,Potency,[12],active: 4.69 µM
same,Potency,[14],inactive
same,Potency,[4],active: 2.35 µM
same,Potency,[5],active: 0.0743 µM
same,Potency,[6],active: 0.833 µM
same,Potency,[17],"inconclusive: 0.418 µM [cytotoxic, full curve, poor fit]"
same,Potency,[9],active: 0.0833 µM
same,Potency,[15],active: 18.7 µM
same,Potency,MKL-2,"inconclusive: 0.833 µM [inhibitor, full curve]"
COc1ccc(C(=O)c2ccccc2O)c(O)c1,Potency,[2],"inconclusive: 2.99 µM [cytotoxic, partial curve, poor fit]"
CC(=O)c1cnc2ccc(-c3cc(Cl)c(O)c(Cl)c3)nc2c1NC1CCC(CN(C)C)CC1 (stereo not given),Potency,[3],active: 0.151 µM
OCC(O)CN1CCN(c2ccccc2)CC1 (stereo not given),Potency,[2],inactive
COc1ccc(-c2cc(C(O)C3CCCCN3)c3ccccc3n2)cc1 (stereo not given),Potency,[3],"inconclusive: 29.4 µM [inhibitor, single point]"
same,Potency,[16],active: 22.7 µM
COc1cccc(-c2cn(-c3ccc(CCN4CCC(O)CC4)cc3)c3ncnc(N)c23)c1,Potency,[1],"inconclusive: 37.9 µM [inhibitor, single point]"
Cc1ccc(NC(=O)C2(c3ccc4c(c3)OC(F)(F)O4)CC2)nc1-c1cccc(C(=O)O)c1,Potency,[12],active: 0.59 µM
same,Potency,[14],"inconclusive: 11.7 µM [cytotoxic, full curve, poor fit]"
same,Potency,[1],"inconclusive: 23.9 µM [inhibitor, single point]"
same,Potency,[16],"inconclusive: 20.2 µM [inhibitor, partial curve] and active: 14.1 µM"
same,Potency,[5],active: 0.0469 µM
same,Potency,[6],active: 0.0662 µM
same,Potency,[7],active: 0.0418 µM
same,Potency,[17],active: 0.0469 µM
same,Potency,[10],active: 0.0833 µM
same,Potency,[15],active: 0.0743 µM
same,Potency,MKL-1,"inconclusive: 0.0469 µM [inhibitor, full curve]"
CC(=O)OC[C@H]1O[C@@H](n2ncc(=O)[nH]c2=O)[C@H](OC(C)=O)[C@@H]1OC(C)=O,Potency,[11],"inconclusive: 33.5 µM [cytotoxic, single point]"
same,Potency,[2],active: 4.22 µM
same,Potency,[13],"inconclusive: 33.5 µM [cytotoxic, single point]"
